Screen size: about 360,000 compounds; about 270 (0.075%) were called active. The shares of active, inactive and inconclusive entries below differ from those in the screen. Calls come from the whole dose curve; as a rule, active = well fitted activation curve with a large enough effect; inconclusive = small, poorly fitted or top-dose-only effect; inactive = no such curve, though single readings can be large or run the other way. Potencies of inconclusive entries are left out as doubtful fits.
biological target: Rap guanine nucleotide exchange factor 3 (Homo sapiens) (UniProt O95398); assay: qHTS for Agonist of cAMP-regulated guanine nucleotide exchange factor 3 (EPAC1): primary screen; settings: biochemical assay; activation: at 154 µM (top of the series), 100% = response to 6.5 mM cAMP; note: nearly all actives have a fitted effect of over 60% in size
UniProt O95398, sequence (O95398 whole entry, looked up): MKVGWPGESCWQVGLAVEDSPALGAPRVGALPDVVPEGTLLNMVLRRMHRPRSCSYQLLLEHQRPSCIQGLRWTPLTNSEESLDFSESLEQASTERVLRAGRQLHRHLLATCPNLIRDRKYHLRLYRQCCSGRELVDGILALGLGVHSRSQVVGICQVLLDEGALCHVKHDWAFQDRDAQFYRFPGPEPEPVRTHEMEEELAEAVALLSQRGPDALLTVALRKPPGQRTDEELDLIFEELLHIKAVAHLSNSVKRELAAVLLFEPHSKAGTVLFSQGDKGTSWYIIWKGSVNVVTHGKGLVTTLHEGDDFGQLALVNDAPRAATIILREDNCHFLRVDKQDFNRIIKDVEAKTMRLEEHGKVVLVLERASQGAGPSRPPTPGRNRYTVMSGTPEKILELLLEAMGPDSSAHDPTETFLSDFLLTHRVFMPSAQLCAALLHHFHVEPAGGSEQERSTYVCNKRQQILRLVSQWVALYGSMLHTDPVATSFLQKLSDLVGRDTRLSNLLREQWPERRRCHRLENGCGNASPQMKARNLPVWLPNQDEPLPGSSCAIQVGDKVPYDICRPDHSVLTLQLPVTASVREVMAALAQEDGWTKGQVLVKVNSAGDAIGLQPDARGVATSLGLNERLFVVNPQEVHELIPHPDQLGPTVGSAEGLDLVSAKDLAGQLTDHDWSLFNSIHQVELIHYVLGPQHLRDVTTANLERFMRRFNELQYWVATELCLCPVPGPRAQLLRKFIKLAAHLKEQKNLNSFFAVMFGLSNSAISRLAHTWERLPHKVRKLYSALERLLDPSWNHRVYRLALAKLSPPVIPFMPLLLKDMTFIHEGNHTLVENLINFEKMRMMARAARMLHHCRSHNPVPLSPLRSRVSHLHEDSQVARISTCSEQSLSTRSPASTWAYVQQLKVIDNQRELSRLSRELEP
Method in brief: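 Normalized to 6.5 mM cAMP, activity reflects EPAC1-catalysed release of BODIPY-GDP from Rap1B, followed kinetically over 30 min at 480 nm excitation, 540 nm emission. Reaction contained 100 nM EPAC1, 250 nM Rap1B-BODIPY-GDP, 50 uM GDP.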
Potency is the fitted concentration of half-maximal effect; tags give direction and shape of the fitted curve.

| SMILES | activation | Potency |
| --- | --- | --- |
| CN(CC(=O)Nc1ccccc1Cl)C(=O)c1cccc(-n2cccc2)c1 | inactive: -9.37% | – |
| CC(=O)c1cccc(NC(=O)C2Cc3c(-c4cccc(F)c4)ccnc3O2)c1 (centres undefined) | – | inconclusive [activator, single point] |
| Cc1ccc2c(c1)CCCN2C(=O)c1cc(C)c(C)s1 | – | inconclusive [activator, partial curve] |
| CC(C)(C)NC(=S)NC(=O)C12CCC3CC(CC(C3)C1)C2 | inactive: 13% | – |
| CC(=O)Nc1ccc(NC(=O)C(C)Sc2nc3ccccc3c(=O)n2Cc2ccco2)cc1 (centres undefined) | – | inconclusive [activator, full curve, poor fit] |
| COc1ccccc1NS(=O)(=O)c1cc(NC(=O)C(C)C)ccc1N1CCCCC1 | inactive: 7.58% | – |
| Cc1cccc(S(=O)(=O)c2c(N)n(Cc3ccco3)c3nc4ccccc4nc23)c1 | – | inconclusive [activator, partial curve] |
| CC(=O)Nc1cccc(-c2ccnc3c2CC(C(=O)Nc2ccc(C(C)C)cc2)O3)c1 (centres undefined) | inactive: 0.77% | – |
| COc1ccc(OC)c(/C=C2\N=C(c3ccccc3)OC2=O)c1 | – | inconclusive [activator, single point] |
| CSCCC(NC(=O)c1ccc(Cl)cc1)C(=O)OCC(=O)NCc1ccco1 (centres undefined) | – | inconclusive [activator, partial curve, poor fit] |
| CCN1CC=C2C(C#N)=C(N)C(C#N)(C#N)[C@H](c3ccoc3)[C@H]2C1 | – | inconclusive [activator, single point] |
| COc1ccc(Cc2c(C(C)(C)C)nc3c(C)cc(Br)cn23)c(C)c1 | – | inconclusive [activator, full curve] |
| O=C(CCN1C(=O)C2CCCCC2C1=O)N1CCN(S(=O)(=O)c2cccc(F)c2)CC1 (centres undefined) | – | inconclusive [activator, partial curve] |
| O=C(COc1ccc(S(=O)(=O)N2CCOCC2)cc1Cl)NCCN1CCOCC1 | inactive: 3.69% | – |
| COc1ccccc1CCC(=O)Nc1cc(S(=O)(=O)N2CCCCC2)ccc1N1CCN(C)CC1 | – | inconclusive [activator, full curve] |
| CN(Cc1ccccc1)S(=O)(=O)c1cccc2cccnc12 | inactive: -3.82% | – |
| CCOc1ccc(-n2c(C)cc(/C=C3/C(=N)N4C(=NC3=O)SN=C4S(C)(=O)=O)c2C)cc1 | inactive: -5.65% | – |
| Cc1occc1C(=O)N/N=C/C1=C(N2CCOCC2)C(=C/c2ccc(Cl)cc2Cl)/CC1 | – | inconclusive [activator, single point] |
| CC1(C)CC(=O)C2=C(C1)NC(=S)C(C#N)C21CCCCC1 (centres undefined) | inactive: 1.02% | – |
| COc1ccc2c(COC(=O)[C@H](C)NS(=O)(=O)c3ccccc3F)cc(=O)oc2c1 | inactive: -1.19% | – |
| CCc1ccc(S(=O)(=O)Nc2cc(SCC(=O)O)c(O)c3ccccc23)cc1 | – | inconclusive [activator, partial curve] |
| CCN(CC)c1ccc2cc(-c3nc4ccccc4[nH]3)c(=O)oc2c1 | – | inconclusive [activator, single point] |

| SMILES | activation | Potency |
| --- | --- | --- |
| Cc1ccccc1C(=O)N=c1ccn(-c2nc3ccccc3nc2NS(=O)(=O)c2ccc(F)cc2)cc1 | – | inconclusive [activator, single point] |
| COc1ccc(Oc2coc3c(CN(C)C)c(O)ccc3c2=O)cc1 | inactive: 4.35% | – |
| NC(=O)C1CCN(c2nc(-c3ccc4ccccc4c3)cs2)CC1 | inactive: -8.72% | – |
| O=C(CCC1CCCC1)Nc1ccc([N+](=O)[O-])cn1 | – | active: 112 µM |
| Cc1ccc(S(=O)(=O)Nc2ccc(-c3csc(-c4ccccc4)n3)cc2)cc1 | – | inconclusive [activator, single point] |
| C=CCN1C(=O)c2ccc(C(=O)N(CC)CC(=O)Nc3c(F)cccc3F)cc2C1=O | – | inconclusive [activator, full curve, poor fit] |
| CC(C)(C)c1ccc(C(=O)NCC2CCCN2S(=O)(=O)c2ccccc2)cc1 (centres undefined) | – | active: 44.7 µM |
| COc1ccc(C(=O)NNC(=O)CN(C)S(=O)(=O)c2ccc(Cl)cc2)c(OC)c1OC | – | inconclusive [activator, single point] |
| O=C(CCCOc1ccccc1)NN1C(=O)NC2(CCCCC2)C1=O | – | inconclusive [activator, single point] |
| Cc1cc2nc3c(=O)[nH]c(=O)[nH]c3nc2c([N+](=O)[O-])c1N | – | active: 89.1 µM |
| O=S(=O)(NCCC1=CCCCC1)c1ccc(OC(F)(F)F)cc1 | – | inconclusive [activator, partial curve, poor fit] |
| CNc1ccc(/C=C(\CCC(=O)O)c2nc3ccccc3s2)cc1[N+](=O)[O-] | – | inconclusive [activator, partial curve] |
| CC1(C)OC(C)(C)/C(=C/Nc2ccc(O)cc2)C1=O | inactive: -1.42% | – |
| OC1(c2ccc(Cl)cc2)CCN(Cc2cn[nH]c2-c2ccccc2)CC1 | inactive: 14.9% | – |
| CC1CCc2[nH]c3ccc(C(=O)N(C)CC(=O)Nc4ccccc4Br)cc3c2C1 (centres undefined) | – | inconclusive [activator, partial curve] |
| COc1cc2c(cc1OC)-c1cc3ccc4c(c3c[n+]1CC2)OCO4 | – | inconclusive [activator, single point] |
| COc1ccccc1N1CC(C(=O)Nc2cc(C(F)(F)F)ccc2N2CCCC2)CC1=O (centres undefined) | – | inconclusive [activator, partial curve] |
| Nc1c(C(=O)N2CCCCCC2)oc2ccccc12 | inactive: 8.37% | – |
| COc1cccc(C(=O)Nc2ccc(NC(=O)c3cc4ccccc4o3)c(OC)c2)c1 | – | inconclusive [activator, single point] |
| CC/C(C)=N/Nc1nc2c(c(=O)[nH]c(=O)n2C)n1Cc1ccccc1 | – | inconclusive [activator, partial curve, poor fit] |
| O=C(NCC(c1ccc(F)cc1)N1CCOCC1)c1ccco1 (centres undefined) | – | inconclusive [activator, partial curve, poor fit] |
| N=C1/C(=C\c2ccc(-c3cccc(C(=O)O)c3)o2)C(=O)N=C2SC=C(c3ccccc3)N12 | – | inconclusive [activator, partial curve] |
